{"source": "the supplement of paper PMC3334620", "note": "Whole data set: some 33,000 sequences, median “E-score (-0.5 to 0.5)” near -0.012, cut for the highest 2% near 0.27. The list shows a part of the results.", "data": [{"biological_target": "T1, Vhr1 (UniProt P40522)", "T1 sequence": "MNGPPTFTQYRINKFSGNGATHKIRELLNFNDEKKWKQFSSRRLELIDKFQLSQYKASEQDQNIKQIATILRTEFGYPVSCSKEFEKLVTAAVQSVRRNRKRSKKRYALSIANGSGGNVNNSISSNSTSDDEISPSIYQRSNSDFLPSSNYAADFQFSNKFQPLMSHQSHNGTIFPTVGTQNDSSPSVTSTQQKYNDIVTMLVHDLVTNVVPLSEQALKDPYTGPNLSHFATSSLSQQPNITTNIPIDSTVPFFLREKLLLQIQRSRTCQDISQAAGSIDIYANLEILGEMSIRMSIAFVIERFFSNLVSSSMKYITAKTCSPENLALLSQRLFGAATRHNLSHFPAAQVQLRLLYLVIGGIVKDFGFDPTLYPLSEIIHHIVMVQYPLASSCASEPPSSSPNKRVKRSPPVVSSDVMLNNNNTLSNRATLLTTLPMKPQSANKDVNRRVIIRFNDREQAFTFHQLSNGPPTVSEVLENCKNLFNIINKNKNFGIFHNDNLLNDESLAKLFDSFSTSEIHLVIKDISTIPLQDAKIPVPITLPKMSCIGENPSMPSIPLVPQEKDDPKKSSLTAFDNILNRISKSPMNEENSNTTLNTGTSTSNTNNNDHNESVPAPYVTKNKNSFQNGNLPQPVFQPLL", "test": "PBM E-score (8-mer binding enrichment) (E-score (-0.5 to 0.5)); higher = stronger / more preferred TF binding; most listed sequences are background and not binding sites", "details": "protein concentration: 200 nM; construct: GST-full length", "how_it_was_run": "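Yeast transcription factors, full-length or as DNA-binding domains, were expressed with a GST tag using PURExpress in vitro transcription/translation. At about 100-200 nM they were applied to universal all-10-mer Agilent arrays, double-stranded by primer extension on fresh or once-stripped slides. Fluorescent anti-GST detected bound protein, and masliner normalised the scans. E-scores for ungapped eight-base words, pooled with reverse complements, came from the Universal PBM Analysis Suite.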", "values": [{"sequence": "AAGAGGGT", "PBM E-score": -0.255}, {"sequence": "AGTCAATC", "PBM E-score": 0.231}, {"sequence": "AGTGCCTA", "PBM E-score": -0.179}, {"sequence": "ACTGCGAG", "PBM E-score": 0.0985}, {"sequence": "AATTTGGG", "PBM E-score": 0.0489}, {"sequence": "ATCCCAAT", "PBM E-score": -0.0808}, {"sequence": "AGAGCGCA", "PBM E-score": -0.145}, {"sequence": "AACTCGAC", "PBM E-score": 0.172}, {"sequence": "ACCCGATC", "PBM E-score": 0.0339}, {"sequence": "AAGTGCAG", "PBM E-score": -0.193}, {"sequence": "CACCTAGG", "PBM E-score": -0.073}, {"sequence": "CTAGCATC", "PBM E-score": -0.0731}, {"sequence": "ACAACTGT", "PBM E-score": -0.0775}, {"sequence": "CGGGACGC", "PBM E-score": -0.169}, {"sequence": "AAGAGCTC", "PBM E-score": -0.34}, {"sequence": "CTTTGTAC", "PBM E-score": -0.0665}, {"sequence": "ATACCCAT", "PBM E-score": 0.269}, {"sequence": "AACACGTG", "PBM E-score": 0.122}, {"sequence": "ACTGCCAG", "PBM E-score": 0.131}, {"sequence": "GGTCTTAA", "PBM E-score": -0.218}, {"sequence": "CTAGGCCA", "PBM E-score": -0.151}, {"sequence": "TCTTGAAA", "PBM E-score": -0.13}, {"sequence": "CATGACAA", "PBM E-score": 0.0092}, {"sequence": "GAGAATAC", "PBM E-score": 0.154}, {"sequence": "CCGCATGA", "PBM E-score": 0.146}, {"sequence": "CCCCGTCC", "PBM E-score": -0.0277}, {"sequence": "AAGCCGCG", "PBM E-score": -0.0488}, {"sequence": "CAGCCAGG", "PBM E-score": 0.0621}, {"sequence": "ACGCCATA", "PBM E-score": 0.0809}, {"sequence": "CCTCTAGC", "PBM E-score": -0.228}, {"sequence": "ACACTACT", "PBM E-score": 0.125}, {"sequence": "CGAATCCC", "PBM E-score": 0.00269}, {"sequence": "AAATTCAA", "PBM E-score": -0.231}, {"sequence": "CATCCTAA", "PBM E-score": 0.00126}, {"sequence": "TGACTTAA", "PBM E-score": 0.118}, {"sequence": "ACACAAGC", "PBM E-score": 0.255}, {"sequence": "AATTCGGG", "PBM E-score": -0.172}, {"sequence": "AAAGCCAG", "PBM E-score": -0.0737}, {"sequence": "CTGAGGAA", "PBM E-score": -0.261}, {"sequence": "CTGCTATC", "PBM E-score": 0.107}, {"sequence": "GGTCTTGA", "PBM E-score": -0.0702}, {"sequence": "AGGGTTAA", "PBM E-score": -0.167}, {"sequence": "ATAGTATC", "PBM E-score": 0.0288}, {"sequence": "AATGGACC", "PBM E-score": -0.0459}, {"sequence": "AGCAAGTA", "PBM E-score": 0.0454}, {"sequence": "ACCTGATG", "PBM E-score": 0.147}, {"sequence": "AAAACGCA", "PBM E-score": 0.00163}, {"sequence": "ACATTTGC", "PBM E-score": -0.0424}, {"sequence": "ACAGAATG", "PBM E-score": 0.0432}, {"sequence": "ACAACCCG", "PBM E-score": 0.0771}, {"sequence": "GGCCGCTA", "PBM E-score": -0.155}, {"sequence": "ACCCGGTG", "PBM E-score": 0.0291}, {"sequence": "CAAATGGC", "PBM E-score": -0.185}, {"sequence": "ACGATGAA", "PBM E-score": 0.151}, {"sequence": "CGTTGGAC", "PBM E-score": -0.0825}, {"sequence": "AAAGAAGA", "PBM E-score": -0.162}, {"sequence": "ACGGTGGC", "PBM E-score": 0.12}, {"sequence": "CCGGTATC", "PBM E-score": -0.0549}, {"sequence": "AACGCAGG", "PBM E-score": 0.132}, {"sequence": "GACTTGGA", "PBM E-score": -0.0645}, {"sequence": "CGACGAAA", "PBM E-score": 0.0886}, {"sequence": "CGGTCTGC", "PBM E-score": 0.0253}, {"sequence": "AATTCCAT", "PBM E-score": -0.052}, {"sequence": "ATTGTCCC", "PBM E-score": -0.125}, {"sequence": "GATAACCC", "PBM E-score": -0.107}, {"sequence": "CACCATAG", "PBM E-score": -0.00069}, {"sequence": "CATAACAC", "PBM E-score": 0.185}, {"sequence": "CCAACCTA", "PBM E-score": -0.0504}, {"sequence": "GGCCAAAA", "PBM E-score": -0.241}, {"sequence": "AGATGCGG", "PBM E-score": -0.00129}, {"sequence": "ACCGTAGA", "PBM E-score": -0.076}, {"sequence": "AACCACCG", "PBM E-score": -0.0412}, {"sequence": "ACGCGGAA", "PBM E-score": 0.0134}, {"sequence": "CTATCGAA", "PBM E-score": 0.0824}, {"sequence": "GTACTTCA", "PBM E-score": 0.114}, {"sequence": "AGCACTCA", "PBM E-score": 0.123}, {"sequence": "GACATTTA", "PBM E-score": -0.101}, {"sequence": "CATCATCA", "PBM E-score": -0.0217}, {"sequence": "AAGGGCGG", "PBM E-score": -0.0187}, {"sequence": "CGTACACG", "PBM E-score": 0.0951}, {"sequence": "CATGCAAA", "PBM E-score": -0.0671}, {"sequence": "CATCTCAG", "PBM E-score": 0.177}, {"sequence": "ACGACACC", "PBM E-score": 0.123}, {"sequence": "CAGCTGCG", "PBM E-score": 0.0036}, {"sequence": "AAATGAGG", "PBM E-score": -0.211}, {"sequence": "ATGTCGAC", "PBM E-score": 0.0597}, {"sequence": "GCCTCGCC", "PBM E-score": 0.0674}, {"sequence": "GTCATGAA", "PBM E-score": 0.257}, {"sequence": "AATGTGAT", "PBM E-score": -0.0554}, {"sequence": "CTCGTCCA", "PBM E-score": 0.121}, {"sequence": "AAGATCGA", "PBM E-score": -0.162}, {"sequence": "AGGGTGTA", "PBM E-score": -0.00827}, {"sequence": "AGGCTACT", "PBM E-score": 0.00152}, {"sequence": "GTCGACCA", "PBM E-score": 0.106}]}]}
